According to publication PMC7948425:
These are yes or no findings as the source states them, for the method shown. In cells and extracts the contact can be indirect. Some binding calls cover weakened binding; strength is not graded here. For part of these data: Where a sequence is shown, tags or fusion partners need not be part of it.

Chains of the proteins cited; added tags and fusions are not shown.
UniProt Q9UQE7: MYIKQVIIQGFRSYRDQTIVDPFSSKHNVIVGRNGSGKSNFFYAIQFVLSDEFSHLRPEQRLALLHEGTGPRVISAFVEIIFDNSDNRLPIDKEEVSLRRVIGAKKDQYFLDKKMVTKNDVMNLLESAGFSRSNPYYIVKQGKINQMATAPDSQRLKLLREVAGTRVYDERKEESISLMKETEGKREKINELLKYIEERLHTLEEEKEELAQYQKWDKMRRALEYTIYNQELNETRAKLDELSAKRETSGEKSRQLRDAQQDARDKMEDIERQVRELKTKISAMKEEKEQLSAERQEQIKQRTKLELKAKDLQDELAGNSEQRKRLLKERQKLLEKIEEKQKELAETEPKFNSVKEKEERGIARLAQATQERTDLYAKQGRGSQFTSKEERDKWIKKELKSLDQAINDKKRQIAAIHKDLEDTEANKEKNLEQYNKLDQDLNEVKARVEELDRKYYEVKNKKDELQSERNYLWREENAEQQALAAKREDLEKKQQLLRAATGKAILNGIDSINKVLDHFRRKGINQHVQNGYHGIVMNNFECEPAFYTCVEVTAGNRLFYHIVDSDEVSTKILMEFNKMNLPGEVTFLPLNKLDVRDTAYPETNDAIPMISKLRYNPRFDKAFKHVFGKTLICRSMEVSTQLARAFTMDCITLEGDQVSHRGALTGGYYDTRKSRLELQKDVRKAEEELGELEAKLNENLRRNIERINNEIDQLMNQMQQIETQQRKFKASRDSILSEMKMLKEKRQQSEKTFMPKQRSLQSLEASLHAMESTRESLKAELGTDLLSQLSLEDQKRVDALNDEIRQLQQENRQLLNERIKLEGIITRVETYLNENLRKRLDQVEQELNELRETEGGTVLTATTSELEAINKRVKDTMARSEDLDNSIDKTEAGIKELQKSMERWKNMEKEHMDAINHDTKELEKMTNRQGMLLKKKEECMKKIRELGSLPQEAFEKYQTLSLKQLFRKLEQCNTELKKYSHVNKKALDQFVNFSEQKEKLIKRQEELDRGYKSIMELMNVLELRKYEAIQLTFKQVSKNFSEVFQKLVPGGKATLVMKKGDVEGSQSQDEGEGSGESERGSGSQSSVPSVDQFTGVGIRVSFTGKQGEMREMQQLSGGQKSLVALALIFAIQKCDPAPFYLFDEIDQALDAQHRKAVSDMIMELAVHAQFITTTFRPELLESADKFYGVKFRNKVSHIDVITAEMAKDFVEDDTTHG

What was measured:
[1] = target: SMC3, endogenous (human (endogenous in HCT116, 293T, HeLa, RPE-hTERT)) (UniProt Q9UQE7); assay: co-IP; SMC3 antibody on soluble and chromatin fractions of 293T cells; Western blot with STAG2 and USP13 antibodies
[2] = target: T1, WAPL with FLAG/streptavidin binding peptide dual epitope tag, from the gene-edited endogenous allele (human (endogenous in HCT116)) (UniProt Q7Z5K2); assay: co-IP; dual-affinity purification (FLAG/SBP) from nuclear extracts (1 or 2 mg) of HCT116 epitope-tagged derivatives and parental cells, Western blot with USP13 and FLAG antibodies
T1 sequence: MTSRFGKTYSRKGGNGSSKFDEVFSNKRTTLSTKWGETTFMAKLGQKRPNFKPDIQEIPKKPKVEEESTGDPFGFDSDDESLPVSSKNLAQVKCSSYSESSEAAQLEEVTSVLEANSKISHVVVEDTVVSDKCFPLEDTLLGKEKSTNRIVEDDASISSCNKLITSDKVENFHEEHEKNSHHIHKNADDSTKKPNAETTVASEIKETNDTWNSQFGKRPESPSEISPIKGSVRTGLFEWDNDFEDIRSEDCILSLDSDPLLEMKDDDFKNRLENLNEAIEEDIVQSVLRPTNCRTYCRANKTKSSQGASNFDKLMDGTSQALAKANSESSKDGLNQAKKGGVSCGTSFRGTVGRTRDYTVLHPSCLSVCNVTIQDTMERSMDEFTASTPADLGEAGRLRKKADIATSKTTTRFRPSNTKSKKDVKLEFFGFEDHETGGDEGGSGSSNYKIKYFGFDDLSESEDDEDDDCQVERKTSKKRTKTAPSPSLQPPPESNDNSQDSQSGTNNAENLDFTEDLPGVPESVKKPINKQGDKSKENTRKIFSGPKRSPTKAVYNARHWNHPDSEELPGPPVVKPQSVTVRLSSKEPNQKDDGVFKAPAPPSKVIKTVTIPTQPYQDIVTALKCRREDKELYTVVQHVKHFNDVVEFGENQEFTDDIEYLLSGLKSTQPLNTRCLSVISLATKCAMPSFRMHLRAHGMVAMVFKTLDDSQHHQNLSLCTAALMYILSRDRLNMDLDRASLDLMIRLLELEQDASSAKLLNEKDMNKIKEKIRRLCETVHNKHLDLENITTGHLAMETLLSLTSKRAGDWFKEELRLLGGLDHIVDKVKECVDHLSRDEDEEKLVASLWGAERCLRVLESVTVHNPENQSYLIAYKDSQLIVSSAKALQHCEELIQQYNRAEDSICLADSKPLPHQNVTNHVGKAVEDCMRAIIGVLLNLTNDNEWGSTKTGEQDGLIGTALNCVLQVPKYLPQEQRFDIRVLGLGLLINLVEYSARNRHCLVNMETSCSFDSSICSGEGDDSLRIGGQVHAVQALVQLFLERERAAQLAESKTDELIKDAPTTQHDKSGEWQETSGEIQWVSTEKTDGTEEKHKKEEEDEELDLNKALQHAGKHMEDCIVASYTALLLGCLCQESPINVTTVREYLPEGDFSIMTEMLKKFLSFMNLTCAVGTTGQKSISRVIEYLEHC

[3] = target: T2, SMC1A with FLAG/streptavidin binding peptide dual epitope tag, from the gene-edited endogenous allele (human (endogenous in HCT116)) (UniProt Q14683); assay: as above
T2 sequence: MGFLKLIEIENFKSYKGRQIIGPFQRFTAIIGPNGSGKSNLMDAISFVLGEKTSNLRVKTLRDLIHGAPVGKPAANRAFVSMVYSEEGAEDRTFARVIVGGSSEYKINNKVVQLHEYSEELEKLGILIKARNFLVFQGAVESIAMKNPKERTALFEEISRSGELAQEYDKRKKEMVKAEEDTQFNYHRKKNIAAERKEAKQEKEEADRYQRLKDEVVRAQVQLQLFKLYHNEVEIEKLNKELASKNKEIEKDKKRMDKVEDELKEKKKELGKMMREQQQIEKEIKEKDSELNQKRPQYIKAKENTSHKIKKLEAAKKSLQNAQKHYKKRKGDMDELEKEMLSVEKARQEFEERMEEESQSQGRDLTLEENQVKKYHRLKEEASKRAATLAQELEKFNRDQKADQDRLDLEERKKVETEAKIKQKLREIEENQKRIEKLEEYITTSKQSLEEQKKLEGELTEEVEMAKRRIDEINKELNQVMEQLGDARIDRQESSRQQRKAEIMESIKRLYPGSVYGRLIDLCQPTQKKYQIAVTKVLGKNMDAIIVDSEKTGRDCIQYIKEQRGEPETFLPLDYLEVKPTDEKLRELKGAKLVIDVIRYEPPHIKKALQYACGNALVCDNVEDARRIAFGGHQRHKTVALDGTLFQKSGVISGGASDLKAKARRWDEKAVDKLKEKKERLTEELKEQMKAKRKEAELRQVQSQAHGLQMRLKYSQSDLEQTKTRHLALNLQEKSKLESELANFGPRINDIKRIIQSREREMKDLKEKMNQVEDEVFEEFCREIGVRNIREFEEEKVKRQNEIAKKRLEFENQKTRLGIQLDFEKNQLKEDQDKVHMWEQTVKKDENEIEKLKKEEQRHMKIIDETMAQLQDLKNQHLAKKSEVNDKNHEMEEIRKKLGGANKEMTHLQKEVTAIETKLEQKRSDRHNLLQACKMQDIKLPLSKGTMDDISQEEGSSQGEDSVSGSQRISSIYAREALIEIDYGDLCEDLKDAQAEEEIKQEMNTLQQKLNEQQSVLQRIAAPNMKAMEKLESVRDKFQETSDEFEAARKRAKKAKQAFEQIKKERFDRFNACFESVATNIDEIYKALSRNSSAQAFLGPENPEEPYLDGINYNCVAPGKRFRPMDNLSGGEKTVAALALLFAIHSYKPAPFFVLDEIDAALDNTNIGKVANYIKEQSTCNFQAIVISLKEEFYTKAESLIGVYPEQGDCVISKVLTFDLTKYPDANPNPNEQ

Measured: binding

B1: Ubiquitin-Specific Protease 13 (USP13), endogenous (enzyme, UniProt Q92995 1-863)
chain: MQRRGALFGMPGGSGGRKMAAGDIGELLVPHMPTIRVPRSGDRVYKNECAFSYDSPNSEGGLYVCMNTFLAFGREHVERHFRKTGQSVYMHLKRHVREKVRGASGGALPKRRNSKIFLDLDTDDDLNSDDYEYEDEAKLVIFPDHYEIALPNIEELPALVTIACDAVLSSKSPYRKQDPDTWENELPVSKYANNLTQLDNGVRIPPSGWKCARCDLRENLWLNLTDGSVLCGKWFFDSSGGNGHALEHYRDMGYPLAVKLGTITPDGADVYSFQEEEPVLDPHLAKHLAHFGIDMLHMHGTENGLQDNDIKLRVSEWEVIQESGTKLKPMYGPGYTGLKNLGNSCYLSSVMQAIFSIPEFQRAYVGNLPRIFDYSPLDPTQDFNTQMTKLGHGLLSGQYSKPPVKSELIEQVMKEEHKPQQNGISPRMFKAFVSKSHPEFSSNRQQDAQEFFLHLVNLVERNRIGSENPSDVFRFLVEERIQCCQTRKVRYTERVDYLMQLPVAMEAATNKDELIAYELTRREAEANRRPLPELVRAKIPFSACLQAFSEPENVDDFWSSALQAKSAGVKTSRFASFPEYLVVQIKKFTFGLDWVPKKFDVSIDMPDLLDINHLRARGLQPGEEELPDISPPIVIPDDSKDRLMNQLIDPSDIDESSVMQLAEMGFPLEACRKAVYFTGNMGAEVAFNWIIVHMEEPDFAEPLTMPGYGGAASAGASVFGASGLDNQPPEEIVAIITSMGFQRNQAIQALRATNNNLERALDWIFSHPEFEEDSDFVIEMENNANANIISEAKPEGPRVKDGSGTYELFAFISHMGTSTMSGHYICHIKKEGRWVIYNDHKVCASERPPKDLGYMYFYRRIPS
binds: all assays above
